Results as given in PubChem BioAssay AID1345083 (National Center for Advancing Translational Sciences (NCATS), 2018).
In all, about 94,000 compounds went through this assay and about 6,200 (6.6%) were called active. The shares of active, inactive and inconclusive entries below differ from those in the screen. The call rests on the fitted dose curve; in most records, active means well fitted inhibition curve with a large enough effect; inconclusive means small, poorly fitted or top-dose-only effect; inactive means flat fitted curve, though single readings scatter. Potencies beside an inconclusive call are fits to weak or partial responses and may not hold up.

Test: Cytotoxic Profiling in HEK 293 Cell Line of Diverse Libraries Using Quantitative High-Throughput Screening; further: nearly all actives have a fitted effect of over 60% in size
Conditions: HEK 293 viability, ATP luminescence (CellTiter-Glo), 48-72 h; series mostly up to 115 µM
Procedure, shortened: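 Cytotoxicity was scored by loss of ATP-coupled luminescence (CellTiter-Glo) in HEK 293 cells. Compound treatment ran 48 or 72 hr at 37 degree Celsius, 5% CO2, 95% humidity.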
Potency means the concentration at half of the fitted maximal effect; tags describe the fitted curve by direction and shape.

Q: For `COCc1nc(CCNC(=O)c2noc(C)c2Cc2c(C)noc2C)no1`, which Potency is on record?
A: The Potency was “inactive”.

Q: With `COc1ccc(OC)c(NC(=O)c2c(OC)cc(=O)n3c2CCCC3)c1` as the molecule, how does the Potency read?
A: Its Potency is inconclusive: 7.94 µM [inhibitor, full curve, poor fit].

Q: For `C=CCN1CCN(C(=O)c2c(C)oc3c2CN(Cc2ccc(F)cc2)CC3)CC1`, which Potency is on record?
A: Its Potency is inconclusive: 56.2 µM [inhibitor, partial curve, poor fit].

Q: With `NCc1ccccc1-c1cc(F)cc(F)c1` as the molecule, how does the Potency read?
A: Its Potency is “inactive”.

Q: With `FC(F)(F)c1ccc(CN2CC(Oc3ccc4c(c3)OCO4)C2)cc1` as the molecule, how does the Potency read?
A: Its Potency is inconclusive: 89.1 µM [inhibitor, single point].

Q: For `CCC(c1cccs1)N1C(=O)[C@H]2CN(S(=O)(=O)c3ccccc3F)C[C@H]2C1=O` (some centres undefined), which Potency is on record?
A: Its Potency is “inactive”.

Q: For `CC(C)CN1CC[C@H](c2nc3ccccc3n2C)C1`, which Potency is on record?
A: Its Potency is inconclusive: 158 µM [inhibitor, partial curve, poor fit].

Q: Which Potency does the source give for `c1ccc(Nc2cc3c(cn2)CN(Cc2cnc[nH]2)CCN3)cc1` here?
A: Its Potency is inconclusive: 14.1 µM [inhibitor, full curve].

Q: Which Potency does the source give for `COc1cc(-c2onc(C)c2C(=O)NC2Cc3ccccc3C2)cc(OC)c1OC` here?
A: The Potency was inconclusive: 89.1 µM [inhibitor, partial curve, poor fit].

Q: With `COc1ccc2c(c1)OCC(CNC(=O)c1cnn3ccccc13)C2` (centres undefined) as the molecule, how does the Potency read?
A: Its Potency is inconclusive: 79.4 µM [inhibitor, partial curve, poor fit].

Q: For `CCOC(=O)c1ccc(CNC(=O)N2CCC[C@H](n3c(=O)n(C)c4cccnc43)C2)cc1`, which Potency is on record?
A: Its Potency is inconclusive: 50.1 µM [inhibitor, partial curve, poor fit].

Q: For `Cc1nc(CN2CCN(c3nccc(-c4cccnc4)n3)CC2)cs1`, which Potency is on record?
A: Its Potency is inconclusive: 50.1 µM [inhibitor, partial curve, poor fit].

Q: With `O=C(NCc1ccc(F)cc1)[C@@H]1C[C@@H](c2cccc(C(F)(F)F)c2)N(CC2CCOCC2)C1` as the molecule, how does the Potency read?
A: Its Potency is inconclusive: 22.4 µM [inhibitor, full curve].

Q: For `Cc1ccc(C2Cn3nnc(C(=O)N4CCC(C(=O)NC5CCC(C)CC5)CC4)c3CO2)cc1` (centres undefined), which Potency is on record?
A: The Potency was “inactive”.

Q: For `CCc1cc(CN(C)C(=O)c2oc3cc(OC)ccc3c2C)on1`, which Potency is on record?
A: The Potency was inconclusive: 100 µM [inhibitor, single point].

Q: With `COCC(=O)N[C@@H]1CN(C(=O)c2ccc(OC)cc2OC)CC[C@@H]1c1nc(C)no1` as the molecule, how does the Potency read?
A: Its Potency is “inactive”.

Q: With `CN(CC1CCOCC1)C(=O)Cc1ccccc1` as the molecule, how does the Potency read?
A: Its Potency is “inactive”.

Q: For `Cc1nonc1CC(=O)N1C[C@@H](NS(=O)(=O)N(C)C)[C@H](C(C)C)C1`, which Potency is on record?
A: The Potency was “inactive”.

Q: Which Potency does the source give for `OC1(CN2CCCCC2)CCN(Cc2cnn(-c3ccccc3Cl)c2)C1` (centres undefined) here?
A: The Potency was inconclusive: 89.1 µM [inhibitor, single point].

Q: Which Potency does the source give for `O=C(c1ccc(-c2cccs2)cc1)N1CCC(C(=O)N2CCCCC2)CC1` here?
A: Its Potency is inconclusive: 50.1 µM [inhibitor, partial curve, poor fit].

Q: With `COc1ccccc1-c1cccc(CN2CCC(N[S+](=O)([O-])c3ccc(C)cc3)CC2)c1` as the molecule, how does the Potency read?
A: Its Potency is active: 35.5 µM.

Q: With `O=C(Nc1ccccc1)N1Cc2[nH]cnc2C[C@H]1c1nc(-c2ccccc2)no1` as the molecule, how does the Potency read?
A: The Potency was “inactive”.

Q: With `CC(C)c1nc(-c2ccc(OC3CCN(C(=O)Cc4c[nH]c5ccccc45)C3)cc2)no1` (centres undefined) as the molecule, how does the Potency read?
A: Its Potency is inconclusive: 39.8 µM [inhibitor, partial curve, poor fit].

Q: With `O=C(Cc1cccc(Cl)c1)N1CCc2nc(C3CC3)nc(-c3ccc(Cl)cc3)c2C1` as the molecule, how does the Potency read?
A: The Potency was inconclusive: 50.1 µM [inhibitor, partial curve, poor fit].

Q: Which Potency does the source give for `O=C(Cc1c[nH]c2ncc(-c3ccccc3)cc12)N1CCCC1` here?
A: The Potency was inconclusive: 100 µM [inhibitor, partial curve, poor fit].

Q: Which Potency does the source give for `O=C(Cc1ccc(F)cc1)N1CCC2(CC1)N=C(c1ccc(Cl)cc1)NO2` here?
A: The Potency was inconclusive: 20 µM [inhibitor, full curve].

Q: For `O=C(c1ccc(F)cc1)N1CCC2(CC1)CC(=O)N(c1ccccc1)c1ccccc1O2`, which Potency is on record?
A: Its Potency is inconclusive: 79.4 µM [inhibitor, partial curve, poor fit].

Q: With `COc1cccc(CNC(=O)C2(c3ccc(NS(C)(=O)=O)cc3)CCCCC2)c1` as the molecule, how does the Potency read?
A: Its Potency is inconclusive: 50.1 µM [inhibitor, partial curve, poor fit].

Q: For `Cn1ncc2c(C(=O)NCc3cccs3)cc(-c3ccsc3)nc21`, which Potency is on record?
A: Its Potency is inconclusive: 44.7 µM [inhibitor, partial curve].

Q: With `COc1ccc(CNC(=O)[C@@H]2Cc3nc[nH]c3CN2C(=O)NC2CCCCC2)cc1` as the molecule, how does the Potency read?
A: Its Potency is “inactive”.

Q: With `COCc1nc2nc(-c3ccccc3)c(-c3ccc(O)c(F)c3)cc2n1C` as the molecule, how does the Potency read?
A: The Potency was inconclusive: 70.8 µM [inhibitor, partial curve, poor fit].

Q: With `Cc1ccccc1[C@H]1C[C@@H](O)[C@@H](O)[C@@H]1NC(=O)c1ccc(C(F)(F)F)cc1` as the molecule, how does the Potency read?
A: The Potency was inconclusive: 100 µM [inhibitor, partial curve, poor fit].

Q: For `O=C(C1CCCO1)N1CCN(c2nc(-c3ccncc3)nc3c2CNC3)CC1` (centres undefined), which Potency is on record?
A: Its Potency is inconclusive: 14.1 µM [inhibitor, partial curve, poor fit].

Q: Which Potency does the source give for `O=C(O)C1CCCN(Cc2ccccc2OCCCN2CCOCC2)C1` (centres undefined) here?
A: Its Potency is inconclusive: 89.1 µM [inhibitor, partial curve, poor fit].

Q: With `Cc1ccc(NC(=O)NC2CCN(c3ccc4nnc(C5CC5)n4n3)C2)cc1F` (centres undefined) as the molecule, how does the Potency read?
A: Its Potency is “inactive”.

Q: Which Potency does the source give for `CC(C)Cn1c(=O)c(C(=O)NCCCc2ccccc2)nc2cccnc21` here?
A: Its Potency is inconclusive: 79.4 µM [inhibitor, partial curve, poor fit].

Q: Which Potency does the source give for `CCn1ccc(C(=O)N2CCOc3ccc(CN4CCCCC4)cc3C2)n1` here?
A: The Potency was “inactive”.

Q: For `COc1cccc(CC(=O)NC2CCN(c3cc(-c4cccs4)[nH]n3)C2)c1` (centres undefined), which Potency is on record?
A: Its Potency is inconclusive: 56.2 µM [inhibitor, partial curve, poor fit].

Q: For `COc1ccnc(Cn2c(=O)n(CC(C)C)c3ncc(C(=O)O)cc32)c1OC`, which Potency is on record?
A: The Potency was “inactive”.

Q: With `O=C(c1ccc(Cl)nc1)N1CCC(C(=O)N2CCC(N3Cc4ccccc4C3=O)CC2)CC1` as the molecule, how does the Potency read?
A: The Potency was “inactive”.

Q: Which Potency does the source give for `C1CCC(COCCc2noc(C3CNC3)n2)C1` here?
A: The Potency was active: 6.31 µM.

Q: Which Potency does the source give for `Cc1ccc(CN(C)Cc2ccc(-c3ccccc3)cc2)cc1` here?
A: The Potency was inconclusive: 126 µM [inhibitor, single point].

Q: Which Potency does the source give for `O=C(c1cc(-c2cccc(C(F)(F)F)c2)c2nncn2n1)N1CCN(Cc2ccccc2)CC1` here?
A: Its Potency is inconclusive: 79.4 µM [inhibitor, partial curve, poor fit].

Q: For `CN(C)S(=O)(=O)N1C[C@@H]2CC[C@H](C1)N(Cc1ccccc1C#N)C2`, which Potency is on record?
A: The Potency was “inactive”.

Q: For `Cn1cncc1C(=O)N1C[C@@H](COCC2CC2)[C@H](c2ccccn2)C1`, which Potency is on record?
A: Its Potency is “inactive”.

Q: Which Potency does the source give for `O=C(Cc1cccc(Cl)c1)NCCNC(=O)c1ccc(-c2cncnc2)cc1` here?
A: The Potency was “inactive”.

Q: Which Potency does the source give for `Cc1n[nH]c(C)c1CNC(=O)c1ccc(N2CC3CC(C2)[C@H]2CCCC(=O)N2C3)nc1` (some centres undefined) here?
A: Its Potency is “inactive”.

Q: For `COc1ccccc1-c1cc2c(ccn2C)c(C(=O)NCc2c(C)cc(C)[nH]c2=O)n1`, which Potency is on record?
A: The Potency was inconclusive: 100 µM [inhibitor, partial curve].

Q: Which Potency does the source give for `CCN1CCN(C(=O)C2CCCCN2Cc2ccc(-c3cc(F)ccc3OC)cc2)CC1` (centres undefined) here?
A: The Potency was inconclusive: 50.1 µM [inhibitor, partial curve, poor fit].

Q: Which Potency does the source give for `Cc1cc(C(=O)N(CC2CCN(Cc3ccccc3C)CC2)CC2CCCO2)c(C)o1` (centres undefined) here?
A: Its Potency is “inactive”.

Q: Which Potency does the source give for `O=C(NCC1CCCO1)c1csc(N2CCN(c3ccc(Cl)cc3)CC2)n1` (centres undefined) here?
A: The Potency was active: 35.5 µM.

Q: For `O=C(CC1COCCN1)N1CCC(OCc2cccnc2)CC1` (centres undefined), which Potency is on record?
A: Its Potency is inconclusive: 89.1 µM [inhibitor, single point].

Q: With `CNC(=O)[C@@H]1CN(S(=O)(=O)c2ccc(F)c(C)c2)C[C@H]1C1CCN(C)CC1` as the molecule, how does the Potency read?
A: Its Potency is inconclusive: 89.1 µM [inhibitor, single point].

Q: For `Cc1ccc(C(=O)N2Cc3ccccc3OC3(CCN(C(C)C)CC3)C2)cn1`, which Potency is on record?
A: The Potency was “inactive”.

Q: Which Potency does the source give for `Cc1cc(C(F)(F)F)nn1CC(=O)N1CCC2(CC1)CC(CC(=O)NCc1ccccc1)CCO2` (centres undefined) here?
A: The Potency was inconclusive: 79.4 µM [inhibitor, partial curve].

Q: Which Potency does the source give for `COC[C@@H]1CN(Cc2cccc(C(F)(F)F)c2)C[C@H]1C(=O)NC1CC1` here?
A: The Potency was inconclusive: 89.1 µM [inhibitor, single point].

Q: Which Potency does the source give for `COc1ccc(-c2cc(C(=O)Nc3cccc(F)c3)c3cnn(C)c3n2)cc1` here?
A: The Potency was inconclusive: 44.7 µM [inhibitor, partial curve, poor fit].

Q: Which Potency does the source give for `O=C(Nc1ccc([C@@H](O)[C@H]2COCC(=O)N2Cc2ccccc2F)cc1)c1cccc(F)c1` here?
A: Its Potency is inconclusive: 79.4 µM [inhibitor, partial curve].

Q: With `Cc1[nH]cnc1CN1CCNc2cc(-c3ccccc3)ncc2C1` as the molecule, how does the Potency read?
A: The Potency was inconclusive: 100 µM [inhibitor, partial curve].

Q: For `COc1ccc(C)cc1NC(=O)N1CCCC2(C1)Nc1cccnc1NC2=NC1CCCC1` (centres undefined), which Potency is on record?
A: The Potency was inconclusive: 50.1 µM [inhibitor, partial curve, poor fit].

Q: For `O=C1NCCCCCCN(Cc2ccncc2)[C@@H]2CN(C(=O)Nc3ccccc3F)CC[C@@H]12`, which Potency is on record?
A: The Potency was “inactive”.

Q: For `CC(C)NC(=O)c1nc(-c2ccsc2)c2cnccn12`, which Potency is on record?
A: Its Potency is inconclusive: 70.8 µM [inhibitor, partial curve].

Q: For `CCc1cc(=O)n(CC(=O)N2CCN(c3ccc(OC)cc3)CC2)c(N2CCOCC2)n1`, which Potency is on record?
A: Its Potency is inconclusive: 89.1 µM [inhibitor, single point].

Q: With `O=C1[C@H]2CN(Cc3ccc(Cl)cc3)C[C@H]2C(=O)N1CCc1ccccc1` as the molecule, how does the Potency read?
A: The Potency was inconclusive: 56.2 µM [inhibitor, partial curve, poor fit].
